# From PubChem BioAssay AID686979 (National Center for Advancing Translational Sciences (NCATS), 2013)
# In all, about 420,000 compounds went through this assay and about 50,000 (12%) were called active. Inconclusive means that the source gave no clear call. Such entries were picked first, then a sample of the others. Calls come from the whole dose curve; as a rule, active = well fitted inhibition curve with a large enough effect; inconclusive = small, poorly fitted or top-dose-only effect; inactive = flat fitted curve, though single readings scatter. No potency is given beside an inconclusive call; the fits are too rough.
# Assay: qHTS for Inhibitors of human tyrosyl-DNA phosphodiesterase 1 (TDP1): qHTS in cells in presence of CPT; note: nearly all actives have a fitted effect of over 55% in size
# Conditions: chicken DT40 Tdp1-/-;hTDP1 cells + 20 nM CPT, ATP luminescence, 48 h; activity change, negative = growth inhibition: at 46.2 µM (top of the series) unless noted
# Procedure, shortened: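 Chicken DT40 Tdp1-/- cells stably complemented with human TDP1 were seeded at 400 cells/well in medium containing 20 nM camptothecin, exposed to pin-transferred compounds, and grown at 37 °C for at least 48 hr. Viability was read as ATP luminescence.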
# % is set by controls: 0 for no effect and ±100 for the full control effect; potency is the fitted concentration of half-maximal effect; tags give direction and shape of the fitted curve.
SMILES,Potency,"activity change, negative = growth inhibition"
C[C@H](CO)N1C[C@H](C)[C@@H](CN(C)C(=O)Nc2ccc(F)cc2)Oc2ncc(-c3ccc(F)cc3)cc2C1=O,"inconclusive [inhibitor, partial curve]",–
COc1ccccc1CNc1ncnc2ccc(-c3ccoc3)cc12,"inconclusive [inhibitor, single point]",–
O=C(Oc1cccc([N+](=O)[O-])c1)c1ccc2c(=O)n3c(nc2c1)CCC3,inactive,–
COc1cccc(N2CCN(C(=O)c3ccc4ccccc4c3)CC2)c1,"inconclusive [inhibitor, single point]",–
O=C(Nc1ccc2oc(-c3cccc4c(Br)cccc34)nc2c1)c1ccc(F)cc1,"inconclusive [inhibitor, single point]",–
C[C@H]1CN([C@@H](C)CO)C(=O)c2cc(Br)cnc2O[C@@H]1CN(C)S(C)(=O)=O,inactive,–
COc1ccc(OC)c(S(=O)(=O)CC(O)CS(=O)(=O)c2ccccc2)c1 (stereo not given),"inconclusive [inhibitor, single point]",–
N#C/C(=C/c1cn(CC(=O)O)c2ccccc12)c1ccc(F)cc1,inactive,–
O=C(COC(=O)c1ccccc1SCC(=O)N1CCCC1)NCc1ccccc1,inactive,–
CC(=O)c1cccc(-c2ccc3c(c2)C(C)(Cc2ccccc2C#N)C(=O)N3)c1 (stereo not given),active: 16.4 µM,–
Cc1cc2nc(-c3ccc(SCC(=O)N4CCOCC4)nc3)[nH]c2cc1C,active: 25.9 µM,–
COc1ccc(-c2nn3c(-c4ccccn4)nnc3s2)cc1OC,"inconclusive [inhibitor, partial curve, poor fit]",–
CCc1ccc(NC(=O)c2cccnc2)cc1,inactive,–
CC(C)[C@H](NC(=O)c1ccc(Cl)cc1Cl)C(=O)OCc1nc2ccsc2c(=O)[nH]1,inactive,–
CC(C)(C)OC(=O)NCCCC[C@H](NC(=O)c1nc[nH]c1C(=O)N1CCN(c2ccccc2)CC1)C(=O)OC(C)(C)C,"inconclusive [inhibitor, single point]",–
CCCCCCc1cc2cc(-c3nnc(-c4cc(OC)c(OC)c(OC)c4)o3)c(=O)oc2cc1O,"inconclusive [inhibitor, single point]",–
O=C(CCCCCN1C(=O)c2cccc3cccc(c23)C1=O)NCCCO,inactive,–
COC(=O)c1sc(=S)n(-c2cccc(Cl)c2)c1N,"inconclusive [inhibitor, single point]",–
Nc1nonc1-n1nnc(C(=O)N/N=C/c2ccccc2O)c1CN1CCCC1,"inconclusive [inhibitor, single point]",–
CCCCn1c(=O)n(C)c(=O)c2c3c(sc21)COC(C)(C)C3,–,inconclusive: -30.3% [inhibitor]
O=C(/C=C/c1ccc(Cl)cc1Cl)Nc1cccc(S(=O)(=O)NC2=NCCC2)c1,active: 16.4 µM,–
COc1cccc(CN(C)C(=O)CSCC(=O)Nc2cc(C)on2)c1OC,–,inconclusive: -31.8% [inhibitor]
O=[N+]([O-])c1ccc(P(=O)(Cc2ccccc2)c2ccccc2O)cc1 (stereo not given),inactive,–

SMILES,Potency,"activity change, negative = growth inhibition"
O=C(CN1C(=O)NC2(CCCC2)C1=O)Nc1nc2ccccc2[nH]1,inactive,–
CCCN(Cc1cccs1)C(=O)Nc1cc(Cl)c(OC)cc1OC,"inconclusive [inhibitor, single point]",–
CC(OC(=O)c1ccc(Cl)nc1)C(=O)NCc1ccc2c(c1)OCO2 (stereo not given),inactive,–
c1ccc(CNc2nc(N3CCN(Cc4ccccc4)CC3)nc3ccccc23)cc1,"inconclusive [inhibitor, single point]",–
CCCCOCCCNC(=O)C[C@@H]1C[C@@]2(C(=O)OCC)CCC=C2N(Cc2ccco2)C1=O,inactive,–
Cn1cc(-c2nc3cnc(N4CCNCC4)nc3n(CCc3ccccc3)c2=O)c2ccccc21,"inconclusive [inhibitor, single point]",–
O=C(Nc1nc(-c2cccs2)cs1)c1ccc([N+](=O)[O-])o1,"inconclusive [inhibitor, single point]",–
C[C@H](NC(=O)c1cc2c([nH]c3ccccc32)c(-c2ccccc2)n1)C(=O)O,"inconclusive [inhibitor, single point]",–
O=C(COC(=O)c1cc(-c2cccs2)nc2ccccc12)c1ccccc1,"inconclusive [inhibitor, partial curve]",–
CCOC(=O)C1CCCN(C(=S)Nc2cccc(Cl)c2)C1 (stereo not given),inactive,–
CC1(C(=O)Nc2cnc3ccccc3c2)CCN1C(=O)C/C=C/c1ccccc1 (stereo not given),active: 3.26 µM,–
CCOC(=O)c1oc2ccc(S(=O)(=O)n3nc(-c4ccccc4OC)cc3N)cc2c1C,active: 18.4 µM,–
O=C(COC(=O)c1ccccc1C(=O)c1ccccc1)Nc1ccc(SC(F)F)cc1,"inconclusive [inhibitor, single point]",–
CC1=C(C(=O)OCCC(C)C)C(c2ccc3c(c2)OCO3)NC(=O)N1 (stereo not given),"inconclusive [inhibitor, single point]",–
Cc1cc(C)c(/C([O-])=C(/C(=S)Nc2ccc(SC(F)F)cc2)[n+]2ccccc2)cc1C,"inconclusive [inhibitor, single point]",–
C=COc1ccc(N2C(=O)c3ccccc3OC2C)cc1 (stereo not given),"inconclusive [inhibitor, partial curve]",–
CCCCC(=O)Nc1nnc(C2=COCCO2)o1,inactive,–
FC(F)(F)c1ccccc1Cc1c(-c2ccccc2)nc2c3ccccc3ccn12,–,inconclusive: -30.8% [inhibitor]
CC(C)(C)c1ccc(C(CC(=O)O)NS(=O)(=O)Cc2ccccc2)cc1 (stereo not given),inactive,–
CC(C)(C)c1ccc(OCCC(=O)OCC(=O)NC2CCCCC2)cc1,inactive,–
CCc1ccccc1CC1CN(Cc2ccccc2)Cc2ccccc2N1c1ccc(OC)cc1 (stereo not given),"inconclusive [inhibitor, single point]",–
O=C(NCCCc1ccccc1)C(=O)NCC1OCCN1S(=O)(=O)c1ccccc1 (stereo not given),"inconclusive [inhibitor, single point]",–
C/C(=N/NC(=O)CNC(=O)c1cccnc1)c1ccccc1,inactive,–

SMILES,Potency,"activity change, negative = growth inhibition"
CC(C#N)(NC(=O)CN1CCN(S(=O)(=O)c2cc(C(F)(F)F)ccc2Cl)CC1)C1CC1 (stereo not given),inactive,–
COc1ccc(C2=NC3(CCCCC3)N(CC(=O)Nc3ccc(C(C)C)cc3)C2=O)cc1,"inconclusive [inhibitor, single point]",–
Cc1cc(OC(C)C(=O)Nc2ccccc2C(=O)N2CCCC2)ccc1Cl (stereo not given),"inconclusive [inhibitor, single point]",–
COc1cc(OC)nc(NC(C)=O)n1,inactive,–
CSc1ccc(C(=O)C2CCCN(C(=O)c3nonc3C)C2)cc1 (stereo not given),"inconclusive [inhibitor, single point]",–
CCCCCCCCCCCCN1[C@@H](CC(=O)OC)c2cc(F)cc(F)c2S1(=O)=O,"inconclusive [inhibitor, single point]",–
O=C(O)c1ccc(Sc2nnc3ccccn23)c([N+](=O)[O-])c1,inactive,–
COc1ccc(-c2cc(C(=O)Oc3ccccc3)c3cc(C)ccc3n2)cc1,"inconclusive [inhibitor, single point]",–
CCOc1ccc(CCN2C(=S)N([C@@H](CC(C)C)CN3CCC[C@@H]3CN3C(=S)NC[C@@H]3CC(C)C)C[C@@H]2Cc2ccc(O)cc2)cc1,active: 9.2 µM,–
CN(C)S(=O)(=O)c1cccc(NC(=S)N/N=C/C(=O)c2ccccc2)c1,"inconclusive [inhibitor, single point]",–
Cc1ccc([N+](=O)[O-])cc1S(=O)(=O)N1CCNCC1,"inconclusive [inhibitor, single point]",–
COc1cccc(-n2c(SCC(=O)Nc3cc(C)ccc3C)nc3c(oc4ccccc43)c2=O)c1,"inconclusive [inhibitor, single point]",–
CC(C)Oc1cccc(C(=O)NC(=S)Nc2ccccc2N2CCOCC2)c1,"inconclusive [inhibitor, single point]",–
CCC(O)CNC(=O)NC(=C(Cl)Cl)c1ccc(C)c(F)c1 (stereo not given),"inconclusive [inhibitor, single point]",–
CCC(CN(C)C)Oc1cc(NCc2ccccc2)c2ncn(C(C)C)c2c1 (stereo not given),active: 25.9 µM,–
O=C(Cc1ccc(NC(=O)C2CCCN(C(=O)C3CCCC3)C2)cc1)Nc1ccc(C(=O)N2CCOCC2)cc1 (stereo not given),–,inconclusive: -37% [inhibitor]
COc1cccc(CN2CCc3nc(Nc4ccc5c(c4)OCCO5)ncc3C2)c1,"inconclusive [inhibitor, single point]",–
CCC1=NN(C(=O)c2ccc([N+](=O)[O-])cc2)C(O)(c2ccccc2)C1 (stereo not given),"inconclusive [inhibitor, single point]",–
COc1ccccc1CNCC(=O)Nc1ccc(N2CCOCC2)cc1,"inconclusive [inhibitor, single point]",–
Cc1nc(Cl)nc(N(C)c2ccccc2)c1[N+](=O)[O-],"inconclusive [inhibitor, single point]",–
Cc1ccc2cc(C#N)c(N3CCCN(C(=O)C4CCCO4)CC3)nc2c1 (stereo not given),inactive,–
O=C(Nc1ccccc1N1CCCC1)c1ccc(Br)o1,"inconclusive [inhibitor, single point]",–
COc1ccc(CN2CCC(=O)N([C@H](CO)CC(C)C)CC2)cc1,"inconclusive [inhibitor, single point]",inconclusive: -26.7% [inhibitor]
